Hit rate of the full screen: of about 220,000 compounds, about 5,700 (2.6%) were called active. Inconclusive means that the source gave no clear call. Such entries were picked first, then a sample of the others. Calls come from the whole dose curve; as a rule, active = well fitted inhibition curve with a large enough effect; inconclusive = small, poorly fitted or top-dose-only effect; inactive = no such curve, though single readings can be large or run the other way. Potencies beside an inconclusive call are fits to weak or partial responses and may not hold up.
molecular target: Lysine-specific demethylase 5B (Homo sapiens) (UniProt Q9UGL1); test: Primary screen for KDM5B Histone Demethylases FDH-coupled qHTS; conditions: FDH-coupled NADH fluorescence (FDH is formaldehyde dehydrogenase); series mostly up to 57.7 µM; note: nearly all actives have a fitted effect of over 70% in size
Sequence of UniProt Q9UGL1 (Q9UGL1 whole entry, looked up): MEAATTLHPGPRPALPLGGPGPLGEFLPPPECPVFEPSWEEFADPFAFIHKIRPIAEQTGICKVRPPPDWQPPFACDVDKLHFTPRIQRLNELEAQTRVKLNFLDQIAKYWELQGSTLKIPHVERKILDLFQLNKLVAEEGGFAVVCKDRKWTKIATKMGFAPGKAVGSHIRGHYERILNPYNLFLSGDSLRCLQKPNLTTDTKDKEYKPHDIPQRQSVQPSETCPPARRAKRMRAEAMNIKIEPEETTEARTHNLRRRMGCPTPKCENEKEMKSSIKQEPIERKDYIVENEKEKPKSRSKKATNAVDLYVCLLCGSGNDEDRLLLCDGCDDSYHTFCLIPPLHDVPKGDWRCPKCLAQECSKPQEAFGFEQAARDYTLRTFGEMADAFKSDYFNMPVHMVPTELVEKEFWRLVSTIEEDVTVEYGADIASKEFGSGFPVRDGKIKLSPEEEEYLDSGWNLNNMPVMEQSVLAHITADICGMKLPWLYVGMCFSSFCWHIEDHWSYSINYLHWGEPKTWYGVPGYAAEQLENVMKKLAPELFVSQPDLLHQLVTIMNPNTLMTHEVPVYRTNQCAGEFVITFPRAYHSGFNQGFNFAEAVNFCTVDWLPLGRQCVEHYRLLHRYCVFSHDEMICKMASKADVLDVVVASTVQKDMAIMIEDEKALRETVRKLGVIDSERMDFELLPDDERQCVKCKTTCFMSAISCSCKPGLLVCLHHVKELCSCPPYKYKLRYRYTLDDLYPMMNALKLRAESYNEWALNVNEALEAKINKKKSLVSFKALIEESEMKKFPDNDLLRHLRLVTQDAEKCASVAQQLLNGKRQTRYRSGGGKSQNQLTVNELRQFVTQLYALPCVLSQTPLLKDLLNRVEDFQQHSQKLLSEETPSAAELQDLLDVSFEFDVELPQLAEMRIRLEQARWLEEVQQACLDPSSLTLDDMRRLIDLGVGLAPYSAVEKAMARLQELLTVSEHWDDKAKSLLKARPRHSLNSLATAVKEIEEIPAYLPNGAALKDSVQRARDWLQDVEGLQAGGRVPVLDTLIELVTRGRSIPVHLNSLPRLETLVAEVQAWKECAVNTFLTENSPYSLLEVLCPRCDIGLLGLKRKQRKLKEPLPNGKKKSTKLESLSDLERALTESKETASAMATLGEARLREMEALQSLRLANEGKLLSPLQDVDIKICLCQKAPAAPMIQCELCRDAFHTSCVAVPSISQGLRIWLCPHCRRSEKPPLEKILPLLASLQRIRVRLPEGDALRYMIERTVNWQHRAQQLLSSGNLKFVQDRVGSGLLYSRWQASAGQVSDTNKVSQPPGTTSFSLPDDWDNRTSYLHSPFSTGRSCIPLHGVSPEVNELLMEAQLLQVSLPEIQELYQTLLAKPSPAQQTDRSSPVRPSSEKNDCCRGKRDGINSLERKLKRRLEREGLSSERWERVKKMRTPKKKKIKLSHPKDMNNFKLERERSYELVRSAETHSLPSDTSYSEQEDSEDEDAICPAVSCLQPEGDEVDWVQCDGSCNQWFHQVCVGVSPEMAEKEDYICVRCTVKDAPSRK
In short: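 KDM5BΔAP (200 nM final) in 50 mM HEPES pH 7.5, 0.01% Tween-20 was preincubated 10 min at RT with compound over a concentration range. Substrate mix (H3K4me3 12.5 µM, α-KG 25 µM, Fe²⁺, ascorbate, NAD⁺, FDH) was added, and NADH fluorescence change over 30 min gave dose-response curves.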
Potency is the fitted concentration of half-maximal effect; tags give direction and shape of the fitted curve.

Row | SMILES | Potency
1 | COc1ccc(OC)c(C2C=C(c3ccc(Cl)cc3OC(F)F)Nc3nnnn32)c1 (stereo not given) | inconclusive: 39.8 µM [inhibitor, single point]
2 | COc1ccc(NC(=O)c2cc(S(=O)(=O)N3CCc4ccccc43)cn2C)cc1Cl | inconclusive: 39.8 µM [inhibitor, single point]
3 | CC(=O)Nc1cccc(-c2ncc3c(n2)OCCN(Cc2ccc(F)cc2F)C3=O)c1 | active: 31.6 µM
4 | O=C(Cc1ccc(F)cc1)NC1CCN(c2cc(-c3ccccc3)[nH]n2)CC1 | inconclusive: 28.2 µM [inhibitor, single point]
5 | c1coc(-c2nnc([C@H]3CCN(Cc4cc5ccccc5o4)C3)o2)c1 | inconclusive: 31.6 µM [inhibitor, single point]
6 | CCOc1cc(Br)c(C2C(C#N)=C(N)Oc3cc4c(cc32)OCO4)cc1OCC (stereo not given) | inconclusive: 10 µM [inhibitor, partial curve, poor fit]
7 | Nc1c2c(nc3sc4c(c13)CCCC4)-c1ccccc1CC2 | inconclusive: 39.8 µM [inhibitor, single point]
8 | Cn1ccc2c(C(=O)NCCc3cnc[nH]3)nc(-c3cccnc3)cc21 | inactive
9 | CCC(C)NC(=O)CSc1ccccn1 (stereo not given) | inactive
10 | Cc1ccc(NC(=O)c2cc(-c3ccc(C)o3)nc3ccccc23)cc1 | inconclusive: 39.8 µM [inhibitor, single point]
11 | CN(C)c1oc(/C=C/c2ccc(F)cc2)nc1C#N | inconclusive: 10 µM [inhibitor, partial curve, poor fit]
12 | Cc1cn2nc(C(=O)NCc3ccc(F)cc3F)cc2c(N(C)Cc2ccccc2)n1 | inactive
13 | CCOC(=O)c1c(-c2ccccc2)csc1NC(=O)c1nc(S(=O)(=O)CC)ncc1Cl | inconclusive: 3.55 µM [inhibitor, full curve, poor fit]
14 | O=C(/C=C/c1ccccc1)Nc1ccc(OCCc2ccccc2)cc1 | inactive
15 | Cc1nc2nc(N(Cc3ccc(F)cc3)C(=O)c3ccco3)[nH]n2c(=O)c1Cc1ccccc1 | inactive
16 | O=CNNC(=S)Nc1ccccc1C(F)(F)F | inactive
17 | CCOc1ccc(NC(=O)Nc2ccc(F)c(-c3nnc(-c4ccccc4)o3)c2)cc1 | inactive
18 | NC1CC(c2cc(N3CCCN(C(=O)c4ccoc4)CC3)ncn2)C1 (stereo not given) | inconclusive: 28.2 µM [inhibitor, partial curve, poor fit]
19 | Cc1ccc(C(=O)Nc2cnc(-c3ccc(Cl)cc3)nc2)s1 | inconclusive: 14.1 µM [inhibitor, partial curve, poor fit]
20 | Cc1ccc(NC(=O)CN(C)C(=O)c2cccc(S(=O)(=O)NCC3CCCO3)c2)cc1 (stereo not given) | inactive
